Results taken from PubChem BioAssay (NCI).
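Assay format: 96-well plates, 48-hour exposure. Abbreviation: GI50, concentration required for 50% inhibition of growth. Definition used: TGI = concentration required for complete inhibition of growth.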

System: NCI-H322M lung
Assay: inhibition of tumour cell growth, NCI panel, 48 h

SMILES | GI50 | TGI
Cc1ccc2c(n1)C(=O)C(Cl)=C(Nc1cc(C(F)(F)F)cc(C(F)(F)F)c1)C2=O | 15.5 µM | 31.8 µM
O=C(NNc1nc2cc(F)cc(F)c2n2cccc12)c1cnccn1 | 0.26 µM | 11.7 µM
